Assay results published in patent US20150148387A1, “METHODS OF TREATMENT, DIAGNOSIS AND […] METHA[…] WHICH TARGET CERAMIDE METABOLIC […] AND […] SENESCENCE” (priority 2012, published 2015).
Structures can show the parent of a compound that is named as a salt.

What was measured:
[1] = test system: ceramide content and IL-6 and p21 mRNA; experiment: Acute experiment in mice: methamphetamine alone or in combination with L-CS
[2] = test system: primary mouse embryonic fibroblasts (MEF); experiment: Gene expression in MEF; type: cell-based; conditions: methamphetamine treatment
Protocol: Total RNA was extracted from frozen tissues using TRIzol reagent (Invitrogen, Carlsbad, Calif.) and was purified with the RNeasy mini kit (Qiagen, Valencia, Calif.). First-strand complementary DNAs were synthesized using SuperScript II RNaseH reverse transcriptase (Invitrogen). Reverse transcription of total RNA (2 μg) was carried out using oligo(dT)12-18 primers for 50 min at 42° C. mRNA levels were measured by quantitative real-time polymerase chain reaction (RT-PCR) with a Mx 3000P system (Stratagene, La Jolla, Calif.). The following list of primers and fluorogenic probes purchased from Applied Biosystems (TaqMan Gene Expression Assays, Foster City, Calif.): Ceramide Synthase 1 (Rn01420081_m1), Ceramide Synthase 2 (Rn01762789_m1), Ceramide Synthase 4 (Rn01767402_m1), Ceramide Synthase 5 (Rn01532864_m1), Ceramide Synthase 6 (Rn01270930_m1), Interleukin-6 (Rn01410330_m1). mRNA levels were normalized using beta actin, 18S ribosomal protein or glyceraldehyde-3-phosphate dehydrogenase as internal standards. Additional PCR primers were designed using Primer 3 (https://www.Frodo.wit.mit.edu), and the sequences are shown in S.Table XXX.
Mouse embryonic fibroblasts (MEFs) were prepared from mice embryo as previously reported. Briefly, pregnant mice at day 13 post coitum were sacrificed and the uteri were dissected out. […]

[3] = test system: enzymes of de novo ceramide biosynthesis (SPT, CerS) and age-related genes TNF-α, IL-6, p21, p53; experiment: Methamphetamine self-administration in rats: gene expression (RT-PCR)
[4] = test system: NF-kB subunit p65 at the TNF-α promoter; experiment: Chromatin immunoprecipitation assay in MEF; conditions: 1 mM, harvested 24 hrs later
[5] = test system: ceramide synthases and age-related genes TNF-α, IL-6, p21, p53; experiment: Acute methamphetamine administration in rats: gene expression (RT-PCR)

SMILES	methamphetamine-induced increase of IL-6 and p21 mRNA ([1]; methamphetamine in combination with L-CS)	transcription of inflammatory cytokines, IL-6 and TNF-alpha [2]	transcription of age-related genes TNF-α, IL-6, p21, and p53 ([3]; methamphetamine self-administration)	serine palmitoyltransferase (SPT) and ceramide synthase (CerS) gene expression ([3]; skeletal muscle, self-administering rats)	expression of IL-6 and p21 mRNA ([1]; acute treatment with methamphetamine alone)	recruitment of NF-kB subunit p65 to the TNF-α promoter [4]	transcription of IL-6 and p21 ([5]; acute methamphetamine treatment)	expression of mRNA transcripts encoding for ceramide synthases isoforms ([5]; dorsal striatum, methamphetamine-treated vs saline-treated rats)	CerS6 gene expression ([5]; non-contingent methamphetamine administration, data not shown)
N[C@H]1CONC1=O [L-cycloserine]	block the increase								
CN[C@@H](C)Cc1ccccc1 [methamphetamine, S(+)-methylamphetamine HCl]		elevation	elevated levels	increased	increased	recruitment	increased transcription	markedly and selectively elevated	increased
